# From the supplement of paper PMC8728848
# The list shows a part of the results.
# B1: Gal 8 (Homo sapiens), O00214_1 (protein)
# chain: MMLSLNNLQNIIYNPVIPFVGTIPDQLDPGTLIVIRGHVPSDADRFQVDLQNGSSMKPRADVAFHFNPRFKRAGCIVCNTLINEKWGREEITYDTPFKREKSFEIVIMVLKDKFQVAVNGKHTLLYGHRIGPEKIDTLGIYGKVNIHSIGFSFSSDLQSTQASSLELTEISRENVPKSGTPQLRLPFAARLNTPMGPGRTVVVKGEVNANAKSFNVDLLAGKSKDIALHLNPRLNIKAFVRNSFLQESWGEEERNITSFPFSPGMYFEMIIYCDVREFKVAVNGVHSLEYKHRFKELSSIDTLEINGDIHLLEVRSW
# How the values were obtained:
# Experiment in all cases: glycan array binding signal (z-score within array); higher = stronger binding
# Details in all cases: glycan notation: IUPAC condensed, linker removed
# Kdn(a2-3)Gal(b1-3)GalNAc = biological target: Kdn(a2-3)Gal(b1-3)GalNAc
# Method in brief: (§1)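 The binding signal is a Z-score computed within each array. Data were drawn from 3228 arrays in the Consortium for Functional Glycomics database, restricted to those with a known protein sequence. Scores were averaged over arrays of the same protein sequence at different concentrations or buffers, and over linkers, and negative values can be taken as non-binding.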
# Kdn(a2-3)Gal(b1-3)GlcNAc = biological target: Kdn(a2-3)Gal(b1-3)GlcNAc
# Method in brief: as §1
# Kdn(a2-3)Gal(b1-4)Glc = biological target: Kdn(a2-3)Gal(b1-4)Glc
# Method in brief: as §1
# Kdn(a2-3)Gal(b1-4)GlcNAc = biological target: Kdn(a2-3)Gal(b1-4)GlcNAc
# Method in brief: as §1
# [1] = biological target: Kdn(a2-3)Gal(b1-4)[Fuc(a1-3)]GlcNAc
# Method in brief: as §1
# Kdn(a2-6)Gal(b1-4)GlcNAc = biological target: Kdn(a2-6)Gal(b1-4)GlcNAc
# Method in brief: as §1
# [2] = biological target: Man(a1-2)Man(a1-2)Man(a1-3)Man
# Method in brief: as §1
# [3] = biological target: Man(a1-2)Man(a1-2)Man(a1-6)[Man(a1-3)]Man
# Method in brief: as §1
# Man(a1-2)Man(a1-3)Man = biological target: Man(a1-2)Man(a1-3)Man
# Method in brief: as §1
# [4] = biological target: Man(a1-2)Man(a1-3)[Man(a1-2)Man(a1-6)]Man
# Method in brief: as §1
# [5] = biological target: Man(a1-2)Man(a1-3)[Man(a1-2)Man(a1-6)]Man(a1-6)[Man(a1-2)Man(a1-2)Man(a1-3)]Man
# Method in brief: as §1
# [6] = biological target: Man(a1-2)Man(a1-3)[Man(a1-2)Man(a1-6)]Man(a1-6)[Man(a1-2)Man(a1-2)Man(a1-3)]Man(b1-4)GlcNAc(b1-4)GlcNAc
# Method in brief: as §1
# [7] = biological target: Man(a1-2)Man(a1-3)[Man(a1-6)]Man(a1-6)[Man(a1-2)Man(a1-3)]Man(b1-4)GlcNAc(b1-4)GlcNAc
# Method in brief: as §1
# [8] = biological target: Man(a1-2)Man(a1-6)[Man(a1-3)]Man(a1-6)[Man(a1-2)Man(a1-2)Man(a1-3)]Man
# Method in brief: as §1
# [9] = biological target: Man(a1-2)Man(a1-6)[Man(a1-3)]Man(a1-6)[Man(a1-2)Man(a1-2)Man(a1-3)]Man(b1-4)GlcNAc(b1-4)GlcNAc
# Method in brief: as §1
# Man(a1-3)[Man(a1-6)]Man = biological target: Man(a1-3)[Man(a1-6)]Man
# Method in brief: as §1
# [10] = biological target: Man(a1-3)[Man(a1-6)]Man(a1-6)[Man(a1-2)Man(a1-3)]Man(b1-4)GlcNAc(b1-4)GlcNAc
# Method in brief: as §1
# [11] = biological target: Man(a1-3)[Man(a1-6)]Man(a1-6)[Man(a1-3)]Man
# Method in brief: as §1
# [12] = biological target: Man(a1-3)[Man(a1-6)]Man(a1-6)[Man(a1-3)]Man(b1-4)GlcNAc(b1-4)GlcNAc
# Method in brief: as §1
# [13] = biological target: Man(a1-3)[Man(a1-6)]Man(b1-4)GlcNAc(b1-4)GlcNAc
# Method in brief: as §1
# [14] = biological target: Man(a1-3)[Man(a1-6)]Man(b1-4)GlcNAc(b1-4)[Fuc(a1-6)]GlcNAc
# Method in brief: as §1
# Man(a1-6)Man = biological target: Man(a1-6)Man
# Method in brief: as §1
# Man(b1-4)GlcNAc = biological target: Man(b1-4)GlcNAc
# Method in brief: as §1
# Neu5Ac(a2-3)Gal = biological target: Neu5Ac(a2-3)Gal
# Method in brief: as §1
# [15] = biological target: Neu5Ac(a2-3)Gal(b1-3)GalNAc
# Method in brief: as §1
# [16] = biological target: Neu5Ac(a2-3)Gal(b1-3)GalNAc(b1-3)Gal(a1-4)Gal(b1-4)Glc
# Method in brief: as §1
# [17] = biological target: Neu5Ac(a2-3)Gal(b1-3)GalNAc(b1-3)Gal(b1-4)GlcNAc
# Method in brief: as §1
# [18] = biological target: Neu5Ac(a2-3)Gal(b1-3)GalNAc(b1-4)[Neu5Ac(a2-3)]Gal(b1-4)Glc
# Method in brief: as §1
# [19] = biological target: Neu5Ac(a2-3)Gal(b1-3)GalNAc(b1-4)[Neu5Ac(a2-8)Neu5Ac(a2-3)]Gal(b1-4)Glc
# Method in brief: as §1
# [20] = biological target: Neu5Ac(a2-3)Gal(b1-3)GalNAc6S
# Method in brief: as §1
# [21] = biological target: Neu5Ac(a2-3)Gal(b1-3)GlcNAc
# Method in brief: as §1
# [22] = biological target: Neu5Ac(a2-3)Gal(b1-3)GlcNAc(b1-2)Man(a1-3)[GlcNAc(b1-4)][Neu5Ac(a2-3)Gal(b1-3)GlcNAc(b1-2)Man(a1-6)]Man(b1-4)GlcNAc(b1-4)GlcNAc
# Method in brief: as §1
# [23] = biological target: Neu5Ac(a2-3)Gal(b1-3)GlcNAc(b1-3)Gal(b1-3)GlcNAc
# Method in brief: as §1
# [24] = biological target: Neu5Ac(a2-3)Gal(b1-3)GlcNAc(b1-3)Gal(b1-4)GlcNAc
# Method in brief: as §1
# [25] = biological target: Neu5Ac(a2-3)Gal(b1-3)GlcNAc(b1-3)GalNAc
# Method in brief: as §1
# [26] = biological target: Neu5Ac(a2-3)Gal(b1-3)GlcNAc(b1-6)GalNAc
# Method in brief: as §1
# [27] = biological target: Neu5Ac(a2-3)Gal(b1-3)GlcNAc6S
# Method in brief: as §1
# [28] = biological target: Neu5Ac(a2-3)Gal(b1-3)[Fuc(a1-4)]GlcNAc
# Method in brief: as §1
binder,measurement,setting,value
B1,glycan array binding signal (z-score),Kdn(a2-3)Gal(b1-3)GalNAc,-0.154
same,glycan array binding signal (z-score),Kdn(a2-3)Gal(b1-3)GlcNAc,0.062
same,glycan array binding signal (z-score),Kdn(a2-3)Gal(b1-4)Glc,-0.652
same,glycan array binding signal (z-score),Kdn(a2-3)Gal(b1-4)GlcNAc,-0.205
same,glycan array binding signal (z-score),[1],-0.199
same,glycan array binding signal (z-score),Kdn(a2-6)Gal(b1-4)GlcNAc,-0.219
same,glycan array binding signal (z-score),[2],-0.273
same,glycan array binding signal (z-score),[3],-0.223
same,glycan array binding signal (z-score),Man(a1-2)Man(a1-3)Man,-0.215
same,glycan array binding signal (z-score),[4],-0.223
same,glycan array binding signal (z-score),[5],-0.231
same,glycan array binding signal (z-score),[6],0.589
same,glycan array binding signal (z-score),[7],-0.196
same,glycan array binding signal (z-score),[8],-0.193
same,glycan array binding signal (z-score),[9],-0.252
same,glycan array binding signal (z-score),Man(a1-3)[Man(a1-6)]Man,-0.239
same,glycan array binding signal (z-score),[10],2.31
same,glycan array binding signal (z-score),[11],-0.195
same,glycan array binding signal (z-score),[12],-0.16
same,glycan array binding signal (z-score),[13],-0.177
same,glycan array binding signal (z-score),[14],-0.229
same,glycan array binding signal (z-score),Man(a1-6)Man,-0.233
same,glycan array binding signal (z-score),Man(b1-4)GlcNAc,-0.256
same,glycan array binding signal (z-score),Neu5Ac(a2-3)Gal,-0.18
same,glycan array binding signal (z-score),[15],-0.08
same,glycan array binding signal (z-score),[16],-0.078
same,glycan array binding signal (z-score),[17],0.203
same,glycan array binding signal (z-score),[18],0.064
same,glycan array binding signal (z-score),[19],-0.212
same,glycan array binding signal (z-score),[20],0.137
same,glycan array binding signal (z-score),[21],0.105
same,glycan array binding signal (z-score),[22],-2.19
same,glycan array binding signal (z-score),[23],1.18
same,glycan array binding signal (z-score),[24],0.746
same,glycan array binding signal (z-score),[25],0.065
same,glycan array binding signal (z-score),[26],-0.002
same,glycan array binding signal (z-score),[27],2.19
same,glycan array binding signal (z-score),[28],-0.211
